The antibiotic and cytotoxicity screens of Wong et al. (2023)
The list shows a part of the results.

Tested on: HSkMC (human skeletal muscle cells)
Assay: cytotoxicity call (relative viability < 0.9)
Settings: 10 µM

Compound | cytotoxicity call
C[C@H](CO)N1C[C@H](C)[C@H](CN(C)C(=O)Nc2ccc(F)cc2)Oc2ccc(NC(=O)Nc3ccc(C(F)(F)F)cc3)cc2CC1=O | inactive
CC(C)N1C[C@@H](C)[C@H](CN(C)S(=O)(=O)c2ccc(F)cc2)OCCCC[C@H](C)Oc2ccc(NC(=O)Nc3ccccc3)cc2C1=O | inactive
C[C@@H]1CCCCO[C@H](CN(C)S(=O)(=O)c2ccccc2)[C@H](C)CN([C@@H](C)CO)C(=O)c2cc(NS(C)(=O)=O)ccc2O1 | inactive
C[C@H](CO)N1C[C@H](C)[C@@H](CN(C)Cc2ccc3c(c2)OCO3)Oc2ccc(NC(=O)C3CC3)cc2CC1=O | inactive
C[C@H]1CN([C@@H](C)CO)C(=O)c2cc(NC(=O)NC3CCCCC3)ccc2O[C@@H]1CN(C)Cc1ccc(Cl)c(Cl)c1 | inactive
Cc1ccc(S(=O)(=O)Nc2ccc3c(c2)CC(=O)N([C@@H](C)CO)C[C@H](C)[C@@H](CN(C)S(=O)(=O)c2c(C)noc2C)O3)cc1 | inactive
C[C@H]1CCCCO[C@@H](CN(C)Cc2ccc(C(F)(F)F)cc2)[C@@H](C)CN([C@@H](C)CO)C(=O)c2cc(NC(=O)Nc3ccc(F)cc3)ccc2O1 | inactive
C[C@@H]1CCCCO[C@@H](CN(C)CC2CCCCC2)[C@@H](C)CN([C@H](C)CO)C(=O)c2cc(NC(=O)c3ccccc3)ccc2O1 | inactive
COc1ccc(NC(=O)Nc2ccc3c(c2)C(=O)N([C@H](C)CO)C[C@@H](C)[C@@H](CN(C)S(=O)(=O)c2ccc(C)cc2)OCCCC[C@H](C)O3)cc1 | inactive
C[C@@H]1CN([C@@H](C)CO)C(=O)Cc2cc(NC(=O)CCN3CCOCC3)ccc2O[C@H]1CN(C)C(=O)Nc1ccc2c(c1)OCO2 | inactive
COCC(=O)Nc1ccc2c(c1)[C@H]1C[C@H](CC(=O)N3CCOCC3)O[C@H](CO)[C@H]1O2 | inactive
C[C@H](CO)N1C[C@H](C)[C@@H](CN(C)C(=O)Nc2ccc3c(c2)OCO3)Oc2ccc(NC(=O)C3CC3)cc2CC1=O | inactive
C[C@@H]1CN([C@@H](C)CO)C(=O)c2cc(NC(=O)Nc3ccc(F)cc3)ccc2O[C@@H]1CN(C)C(=O)Nc1cccc2ccccc12 | active
C[C@@H]1CN([C@H](C)CO)C(=O)c2cc(NC(=O)c3ccncc3)ccc2O[C@@H](C)CCCCO[C@@H]1CN(C)Cc1ccccc1 | inactive
C[C@@H]1CCCCO[C@@H](CN(C)C)[C@@H](C)CN([C@H](C)CO)C(=O)c2cc(NC(=O)Nc3ccc(C(F)(F)F)cc3)ccc2O1 | inactive
CCN1C(=O)CS/C1=N\N1CCOCC1 | inactive
C[C@@H]1CCCCO[C@H](CN(C)C(=O)Nc2ccccc2)[C@@H](C)CN([C@H](C)CO)C(=O)c2cc(NC(=O)CCC(F)(F)F)ccc2O1 | inactive
O=C1NC[C@@H]2CN(C(=O)c3cnccn3)C[C@@H]12 | inactive
CN1C(=O)c2cc(NC(=O)C3CCOCC3)ccc2OC[C@H]2O[C@@H](CC(=O)NCc3ccc4c(c3)OCO4)CC[C@@H]21 | inactive
O=C(C[C@H]1CC[C@H]2[C@@H](COC[C@@H](O)CN2S(=O)(=O)c2ccc(F)cc2)O1)N1CCc2ccccc2C1 | inactive
COc1ccc(CN(C)C[C@@H]2OCCCC[C@H](C)Oc3ccc(NC(=O)Nc4c(C)noc4C)cc3C(=O)N([C@H](C)CO)C[C@@H]2C)cc1 | inactive
C[C@@H]1CCCCO[C@@H](CN(C)Cc2ccc(C(F)(F)F)cc2)[C@@H](C)CN([C@@H](C)CO)C(=O)c2cc(NC(=O)CCC(F)(F)F)ccc2O1 | inactive
CO[C@@H]1CN(C)C(=O)c2cc(NC(=O)CC(F)(F)F)ccc2OC[C@@H](C)N(S(=O)(=O)c2cn(C)cn2)C[C@H]1C | inactive
CC1=C(C(=O)O)N2C(=O)[C@@H](NC(=O)[C@@H](N)c3ccc(O)cc3)[C@H]2SC1 | inactive
CCOC(=O)c1ncn2c1CN(C)C(=O)c1cc(F)ccc1-2 | inactive
CN1C[C@H](O)COC[C@@H]2O[C@@H](CC(=O)N3CCN(c4ccccc4)CC3)CC[C@H]21 | inactive
Cc1noc(C)c1NC(=O)N(C)C[C@H]1Oc2ccc(NC(=O)Nc3ccc(C(F)(F)F)cc3)cc2C(=O)N([C@H](C)CO)C[C@H]1C | inactive
O=C(NCCCN1CCCC1=O)c1cccnc1 | inactive
C[C@@H]1CN([C@@H](C)CO)C(=O)c2cc(NC(=O)Nc3ccccc3)ccc2O[C@@H]1CN(C)Cc1ccc(C(F)(F)F)cc1 | inactive
